# ± gives the standard deviation of the averaged measurements. Some of the results follow.
# Tested on: PfAP2-EXP AP2 domain (GST-tagged)
# Experiment: gcPBM binding intensity (ln(normalized median fluorescence intensity)); higher = stronger DNA binding
# How it was run: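 Binding intensity values are the highest Masliner-normalised natural-log median intensity among replicate spots of either probe orientation. The binding step lasted 1 h in 1× PBS with 1% milk, 0.2 mg/ml BSA, 0.5% salmon testes DNA and 0.03% Triton X-100, using GST-tagged P. falciparum DNA-binding domains expressed in E. coli on an Agilent 4 × 180k array of primer-extended double-stranded 36-bp intergenic genomic probes plus negative controls. Alexa488 anti-GST antibody and a 488 nm scan detected bound protein.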
row,Sequence,gcPBM binding intensity (ln)
1,TACTATATAAGTAAGGCATGCATGCCGATTTTTTTA [TGCATGCA_site100],9.11 ± 0.28
2,TTCTTTAATACTTATTGTACAATATAATAATCACAA [XGTACX_site6364],8.88 ± 0.25
3,TGAAACCGTTACATGTGTACATATGTTACACATAAT [XGTACX_site7250],8.51 ± 0.28
4,TACTTAAAATATTTAACAAATAAATAAATAAATAAA [XGTACX_negctrl_site523],8.52 ± 0.16
5,ATTAGATATGTAAACTAAAATTATATTCATGATAAT [TGCATGCA_negctrl_site182],8.2 ± 0.63
6,TCTAACAACATGCGCACACACATGAATATTCATATT [CACACA_site1540],8.86 ± 0.11
7,ATATTTTTATTTTCTTTACACACCACATAATTTTTT [CACACA_site4060],8.97 ± 0.5
8,TTTCTTTTACATATTTGTACATATATAAATTTATAT [XGTACX_site1787],8.91 ± 0.35
9,TCACATCTTATATACTGTACATTTCGAATATAAATT [XGTACX_site2508],8.82 ± 0.39
10,CATAATAAGTATAACGTTAGTTACAAACAGCTTGTT [CACACA_negctrl_site937],8.76 ± 0.4
11,AAAATAATGTATATAGTGCAAATGAAAACGAAAAAA [GTGCAC_site9455],9.28 ± 0.42
12,TTTTTAAATAAATGTTTTTATTATATACATATCAAT [TGCATGCA_negctrl_site423],8.1 ± 0.47
13,TATTATTCAAAATTTGTGCACAAAATTAAAGGAACA,8.96 ± 0.38
14,TTTGTTTTTTTGAGAGTGCAATATATATAAAAAGGG [GTGCAC_site9691],9.34 ± 0.36
15,TTGGTGATATTTTTCTCACACATTTACCAGAGATGT [CACACA_site4684],8.44 ± 0.37
16,GTAGATATTTATTGAGTGCATGTTATAAAGGGAAAA [GTGCAC_site9481],8.92 ± 0.24
17,TTTTTATTTTTTTACAGTACATAAAATAAATAAATA [XGTACX_site6596],8.18 ± 0.4
18,TTTTTTTTATGGAAACGTACATACATACATTAAAGA [XGTACX_site7401],8.38 ± 0.39
19,TATTTATATATTTATGCATGTTATAGGCAAAAATGT [TGCATGCA_site397],8.51 ± 0.42

row,Sequence,gcPBM binding intensity (ln)
1,TATATTGATGATGATAGTACGTATGAATACAAAAAA [XGTACX_site4],8.61 ± 0.35
2,AAGAGTAAAATATGGTTGCACTAAAAATATATATTT [GTGCAC_site9484],8.46 ± 0.39
3,TAAAACATATAAAGGTGTACGCCTTTTTGTATCAAT [XGTACX_site6064],8.42 ± 0.3
4,ATAATAAAAATATACTGTACATTTGTAAATTCTTTT [XGTACX_site4655],8.19 ± 0.32
5,TTATAGAGCTTATTCACACATACATATGTATTTATA [CACACA_site5775],8.62 ± 0.54
6,GTCTACTACACTAAATGTACAAGAAAAAAGAAAAAA [XGTACX_site4660],8.49 ± 0.41
7,TATATTTGTTGACACACACACAAAAAAAAAAAAAAA [CACACA_site7211],8.29 ± 0.48
8,TATAAAATTCTGACTTGTACATGTGAAAAATAATTA [XGTACX_site1396],8.68 ± 0.51
9,AAAATACAATTTCTAGCACACAAAATATTATTATAA [CACACA_site9056],8.34 ± 0.37
10,GCGTTGTTTTTAAAAAGTACATTTTTATATAAGTTA [XGTACX_site8780],8.61 ± 0.28
11,AAAGATGGAAAAAAAAATTTGTGTGTTGAAAGATAT [GTGCAC_negctrl_site19],8.84 ± 0.38
12,TATATATATATATAATGTACACATTTTTATAACTAT [XGTACX_site5714],9.94 ± 0.34
13,CTTAATATATGTGGCACACATGTGGAGTCCTATTAA [CACACA_site4281],8.83 ± 0.55
14,AAAAAAATATTAATGTGTACATAATAATAACATATA [XGTACX_site8319],8.61 ± 0.26
15,AAATAAATAAATAAATGTACACATATATATATATAT [XGTACX_site7787],10.2 ± 0.47
16,AAATATTTAAATATTATGTATGATTATATATATATA [CACACA_negctrl_site590],9.83 ± 0.49
17,TCAATAAGATTATAAAGTACTTTTGAAGATATTATA [XGTACX_site7489],8.28 ± 0.33
18,TTTCTTATTTTTTTCACACACTAAACATTTCAAATG [CACACA_site5259],8.77 ± 0.45
19,AAAGAGAACATAAGTACACACATGTTCTTTTAGTAA [CACACA_site2824],8.35 ± 0.4

row,Sequence,gcPBM binding intensity (ln)
1,AATAGGAAAACCTATACACACTTTAAAAAAAATATA [CACACA_site4977],8.28 ± 0.31
2,ATAAATATGTATTGCTGTACATATATATAAATTATC [XGTACX_site8411],8.39 ± 0.28
3,AAAGTAAAAACACATACATGCATATACACATATAAC [TGCATGCA_site341],8.98 ± 0.3
4,AAAAAAAAAAAAAAAACACACAAAAGCAAGAAAAAC [CACACA_site3198],8.81 ± 0.62
5,TAAAAAATTTTCGCGTGTACGCAAGAAAAAAAAAAT [XGTACX_site3058],8.68 ± 0.35
6,TTTTTGCCATATTACACACACACATGGAAACCCCCT [CACACA_site4994],9.76 ± 0.52
7,AAAAAAATAATGTATATATAAATTTATTTACATATG [GTGCAC_negctrl_site107],8.12 ± 0.39
8,TCTTTTAACAAATAATAAGCTAATTTATATTATTAT [GTGCAC_negctrl_site655],8.07 ± 0.42
9,TATATATTTAGTTAGTGTACAAGTTATTTAGTAGTT [XGTACX_site5133],8.54 ± 0.12
10,CAAATAAATTAAAGGTGTACTTTTATAGTTACGACA [XGTACX_site3926],8.39 ± 0.33
11,CATATTTTCTTGTGTACACATTTATTTTATACTATA [CACACA_site6032],9.22 ± 0.27
12,TAAAAAATAAGATATACACACATATATTTATTTATA [CACACA_site7158],8.09 ± 0.52
13,CACCCACCCAGACACACACACACACCCCCACCCATA [CACACA_site367],9.48 ± 0.43
14,ACATTTTAAATACGATGTACTTGAGTTTTTTTTAAA [XGTACX_site5833],8.23 ± 0.3
15,AATTATTTATTGAGAGTGCAACAAATTATTTCAAAT [GTGCAC_site9461],8.43 ± 0.3
16,TTTTTTTGCATGAGCAATAAAAAAGGCTTGTTCAAA [CACACA_negctrl_site1615],8.39 ± 0.37
17,TACATATATGATAAAAGTACATATAAATATACATAA [XGTACX_site3804],8.45 ± 0.33
18,GAAATAAAAGATGGTTGTACACCGTTTTCTCATATA [XGTACX_site5368],8.54 ± 0.27
